This is one part of the list.
Assays:
HSkMC = human skeletal muscle cells; test: cytotoxicity call (relative viability < 0.9); conditions: 10 µM
HepG2 = test: cytotoxicity call (relative viability < 0.9); conditions: 10 µM
S. aureus RN4220 = test: growth inhibition call (relative growth <= 0.2); conditions: 50 µM

Row | SMILES | cytotoxicity call (HSkMC) | cytotoxicity call (HepG2) | growth inhibition call (S. aureus RN4220)
1 | CN1C(=O)c2cc(NC(=O)c3ccc(F)cc3)ccc2OC[C@H]2O[C@H](CC(=O)N3CCOCC3)CC[C@@H]21 | inactive | inactive | inactive
2 | CCS(=O)(=O)N1CC[C@]2(CC1)CN([C@H](CO)c1[nH]c3cc(ccc3c12)OC)S(=O)(=O)c1cccc(c1)OC | inactive | inactive | inactive
3 | CO[C@H]1CN(C)C(=O)c2ccc(NC(=O)Nc3ccccc3)cc2OC[C@@H](C)N(C(=O)CN(C)C)C[C@H]1C | inactive | inactive | inactive
4 | COc1ccc(NC(=O)N(C)C[C@H]2OCCCC[C@@H](C)Oc3ccc(NS(=O)(=O)c4ccc(F)cc4)cc3C(=O)N([C@@H](C)CO)C[C@H]2C)cc1 | inactive | inactive | inactive
5 | C[C@@H]1CN([C@H](C)CO)C(=O)c2c(c3ccccc3n2C)-c2ccccc2CO[C@@H]1CN(C)Cc1ccccc1C(F)(F)F | active | inactive | inactive
6 | Cc1c(C)c(C)c(CN)c(C)c1C | inactive | inactive | inactive
7 | C=CC[C@@H](CC(=O)N[C@@H](CO)Cc1ccccc1)C(=O)NCCOC(=O)[C@@H](CC=C)CC(=O)OC(C)(C)C | inactive | inactive | inactive
8 | C[C@@H]1CN([C@H](C)CO)C(=O)Cc2cc(NC(=O)CCN3CCOCC3)ccc2O[C@@H]1CN(C)C(=O)NC1CCCCC1 | inactive | inactive | inactive
9 | C[C@@H]1CN([C@H](C)CO)S(=O)(=O)c2ccc(C#Cc3ccccc3F)cc2O[C@H]1CN(C)CC1CCOCC1 | inactive | inactive | inactive
10 | Cc1ccc(-c2ccc3c(c2)O[C@@H](CN(C)C(=O)NC(C)C)[C@@H](C)CN([C@H](C)CO)S3(=O)=O)cc1 | inactive | inactive | inactive
11 | CC(C)C[C@@H]1NC(=O)[C@H]2C[C@@H](C(=O)NCCCCCC[N+](C)(C)C)[C@@H](c3cccc(OCCO)c3)N2C1=O | inactive | inactive | inactive
12 | NCC1CCC(C(=O)O)CC1 (centres undefined) | inactive | inactive | inactive
13 | CC(C)N1C(=O)C[C@@](C(=O)NCCN2CCOCC2)(c2ccc([N+](=O)[O-])cc2)[C@H]1c1ccc(CO)cc1 | inactive | inactive | inactive

Source: the antibiotic and cytotoxicity screens of Wong et al. (2023)
